Measured values reported in PMC4336329 (PLoS ONE, 2015).
Screen size: about 310,000 compounds; about 2,200 (0.71%) showed an effect of 50% or more. Effects have a minus sign here. This is one part of the list.

target: human ether-à-go-go-related gene (hERG) potassium channel (human, UniProt Q12809); experiment: primary screen, population patch clamp on CHO cells stably expressing hERG
Sequence (Q12809 whole entry, looked up): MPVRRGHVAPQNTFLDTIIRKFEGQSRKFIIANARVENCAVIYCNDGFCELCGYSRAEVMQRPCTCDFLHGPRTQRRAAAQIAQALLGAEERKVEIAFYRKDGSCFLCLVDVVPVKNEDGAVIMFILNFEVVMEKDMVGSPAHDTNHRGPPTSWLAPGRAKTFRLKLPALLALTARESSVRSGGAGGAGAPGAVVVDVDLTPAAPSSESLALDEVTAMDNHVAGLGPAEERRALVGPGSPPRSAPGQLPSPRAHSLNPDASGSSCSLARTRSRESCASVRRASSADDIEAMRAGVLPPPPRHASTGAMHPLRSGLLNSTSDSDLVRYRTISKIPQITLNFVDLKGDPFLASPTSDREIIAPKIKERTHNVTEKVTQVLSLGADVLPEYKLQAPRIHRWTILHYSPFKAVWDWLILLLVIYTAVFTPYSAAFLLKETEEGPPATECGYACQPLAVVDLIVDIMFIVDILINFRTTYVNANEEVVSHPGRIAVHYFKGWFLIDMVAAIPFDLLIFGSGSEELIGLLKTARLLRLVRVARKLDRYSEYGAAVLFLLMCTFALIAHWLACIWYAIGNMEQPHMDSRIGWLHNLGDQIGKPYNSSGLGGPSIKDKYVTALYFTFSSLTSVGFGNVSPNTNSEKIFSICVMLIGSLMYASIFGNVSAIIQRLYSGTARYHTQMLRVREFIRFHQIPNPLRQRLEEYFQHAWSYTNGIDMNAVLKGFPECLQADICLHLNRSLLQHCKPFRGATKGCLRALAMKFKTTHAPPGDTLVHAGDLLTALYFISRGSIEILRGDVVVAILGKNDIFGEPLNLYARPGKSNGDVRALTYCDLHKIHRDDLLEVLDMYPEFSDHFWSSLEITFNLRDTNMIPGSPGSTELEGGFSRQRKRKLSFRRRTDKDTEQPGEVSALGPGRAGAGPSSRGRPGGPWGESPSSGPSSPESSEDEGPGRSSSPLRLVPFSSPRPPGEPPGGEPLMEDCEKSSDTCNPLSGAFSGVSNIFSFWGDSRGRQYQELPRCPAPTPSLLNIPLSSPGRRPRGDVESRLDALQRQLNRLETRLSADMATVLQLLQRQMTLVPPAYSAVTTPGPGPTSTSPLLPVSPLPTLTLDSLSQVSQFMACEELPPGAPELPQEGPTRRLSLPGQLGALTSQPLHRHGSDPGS

Compared with `CCC(=O)N1CCC2(CC1)Oc1ccc(Cl)cc1C(=O)C21CC(c2ccc(Cl)cc2)=NO1` (stereo not drawn), `CSc1nc(-c2ccc(Cl)cc2)nn1C(=O)c1ccco1` is lower in “hERG current change (%, negative = inhibition) at 1uM” value: 5.67% for the first, 5% for the second.

First: CC(NC(=O)CS(=O)(=O)c1ccccc1)c1ccccc1 (stereo not drawn)
Second: Cn1cnnc1SCC(=O)NN(c1ccccc1)c1ccccc1
The “hERG current change (%, negative = inhibition) at 1uM” value of the first is higher: 9.13% for the first, 5.71% for the second.

Compared with `CCOC(=O)c1c(C)c(C(=O)NCc2ccccn2)c(C)n1C`, `Cn1c(SCC(=O)NCc2cccs2)nnc1-c1ccco1` is lower in “hERG current change (%, negative = inhibition) at 1uM” value: 4.03% for the first, 0.315% for the second.

Going from `Cc1ccc(S(=O)(=O)Nc2cccnc2)c(C)c1C` to `Nc1cc(S(=O)(=O)Nc2ccc(Br)cc2)ccc1Cl`, the “hERG current change (%, negative = inhibition) at 1uM” value falls from 13.6% to 3.07%.

Compared with `O=c1c(Cl)c(N2CCOCC2)cnn1-c1ncc(C(F)(F)F)cc1Cl`, `Cc1cc(Nc2cccc(F)c2)nc(N2CCOCC2)n1` is lower in “hERG current change (%, negative = inhibition) at 1uM” value: 3.18% for the first, 1.43% for the second.

First: COc1ccc(OC)c(NC(=O)CSc2ccc3ccccc3c2)c1
Second: COc1ccc(OC)c(NC(=O)CCOc2cccc(C)c2)c1
The “hERG current change (%, negative = inhibition) at 1uM” value of the first is lower: 1.53% for the first, 9.09% for the second.

Compared with `Cc1onc(-c2c(Cl)cccc2Cl)c1NC(=O)NNc1c(Cl)cncc1Cl`, `Cc1onc(NC(=O)c2ccc(Cl)cc2Cl)c1Br` is higher in “hERG current change (%, negative = inhibition) at 1uM” value: 6.76% for the first, 11.6% for the second.

First: COc1ccc(NC(C)=O)cc1S(=O)(=O)N1CCn2cccc2C1C (stereo not drawn)
Second: COc1ccc(NS(=O)(=O)c2cc3c(cc2C)N(C(C)=O)CCO3)cc1OC
The “hERG current change (%, negative = inhibition) at 1uM” value of the first is lower: 2.1% for the first, 10.3% for the second.

First: C/C(=N\NC(=O)C1COc2ccccc2O1)c1ccccn1 (stereo not drawn)
Second: O=C(N/N=C1\CCc2ccccc21)c1ccncc1
The “hERG current change (%, negative = inhibition) at 1uM” value of the first is lower: 5.55% for the first, 18.5% for the second.

Going from `COc1ccc(NC(=O)C2C3CC/C=C\CCC32)cc1` (stereo not drawn) to `O=C(Nc1ccc(Br)cc1)C1CCCN(C2=NS(=O)(=O)c3ccccc32)C1` (stereo not drawn), the “hERG current change (%, negative = inhibition) at 1uM” value falls from 12.2% to -14%.

First: CC1CCCN(c2nc3c(c(=O)n(C)c(=O)n3C)n2Cc2ccccc2)C1 (stereo not drawn)
Second: CCCCCCn1c(CN2CCN(Cc3ccccc3)CC2)nc2c1c(=O)n(C)c(=O)n2C
The “hERG current change (%, negative = inhibition) at 1uM” value of the first is higher: 7.01% for the first, -47.2% for the second.

Compared with `CCn1c(SCC(=O)Nc2sc(C)c(C)c2C#N)nnc1C1CC1`, `CCn1cc(C(=O)NCc2ccco2)c(=O)c2cc(S(=O)(=O)N3CCC(C)CC3)ccc21` is lower in “hERG current change (%, negative = inhibition) at 1uM” value: 3.68% for the first, -12.2% for the second.

First: COc1ccc2[nH]c(C)c(CCNC(=S)Nc3cccc(C)c3)c2c1
Second: Cc1ccc(-c2cc(=O)c3cc(C)ccc3[nH]2)cc1
The “hERG current change (%, negative = inhibition) at 1uM” value of the first is higher: 12.5% for the first, 11.8% for the second.

Compared with `COc1ccc(CN(C)C(=O)CNC(=O)c2cccs2)c(OC)c1`, `COc1cc(NC(=O)Cc2c(C(=O)O)n(C)c3ccccc23)cc(OC)c1OC` is higher in “hERG current change (%, negative = inhibition) at 1uM” value: 10.9% for the first, 25.2% for the second.

Going from `CCOc1ccc2[nH]c(=O)c(CN(CC3COCCO3)C(=O)C3CC3)cc2c1` (stereo not drawn) to `COc1ccc(C(CNC(=O)COc2ccc(F)cc2Cl)N2CCCCC2)cc1` (stereo not drawn), the “hERG current change (%, negative = inhibition) at 1uM” value falls from 19.8% to 6.84%.

Going from `CC(=O)Oc1cccc(NC(=O)c2cccc(C(=O)Nc3cccc(OC(C)=O)c3)c2)c1` to `COc1ccc2oc(=O)c(C(=O)Nc3ccccc3O)cc2c1`, the “hERG current change (%, negative = inhibition) at 1uM” value falls from 13.3% to 12%.

Going from `FC(F)(F)c1ccc(NCCc2ccccc2)nc1` to `COC(=O)C(Cc1ccccc1)NC(=O)CNC(=O)c1ccc(Br)o1` (stereo not drawn), the “hERG current change (%, negative = inhibition) at 1uM” value falls from 17% to 6.39%.

Going from `N#Cc1c(N)nc(-c2ccccc2)nc1-c1ccccc1` to `C=CC[n+]1c(-c2ccc(OC)cc2)csc1NNC(=O)Nc1ccccc1.[Br-]`, the “hERG current change (%, negative = inhibition) at 1uM” value falls from 13.8% to 7.39%.

Compared with `CCOc1ccc(Oc2ccc(NC(=O)[C@@H](NC(N)=O)[C@@H](C)CC)cc2)cc1`, `COC(=O)Cc1ccc(OCc2ccc(Cl)nc2)cc1` is lower in “hERG current change (%, negative = inhibition) at 1uM” value: 10.5% for the first, -1.27% for the second.

Compared with `COc1ccc(-n2c(C)cc(C(=O)CN3C(=O)NC4(CCc5ccccc54)C3=O)c2C)cc1` (stereo not drawn), `CCN(CC)CCCNC(=O)CNC(=O)c1nn(-c2ccc(OC)cc2)c(=O)c2ccccc12` is higher in “hERG current change (%, negative = inhibition) at 1uM” value: 10.9% for the first, 17.5% for the second.

Going from `Cn1c(C(=O)NCCc2ccsc2)cc2c(=O)n(C)c3ccccc3c21` to `Cc1nnsc1C(=O)N/N=C/c1ccc2ccccc2c1O`, the “hERG current change (%, negative = inhibition) at 1uM” value rises from 5.43% to 15.1%.

Compared with `O=C1NC(=O)C(=Cc2ccc(N3CCOCC3)o2)C(=O)N1`, `O=c1[nH]c(=O)n(C2CCCCC2)c(O)c1C=Nc1ccc(N2CCOCC2)cc1` is lower in “hERG current change (%, negative = inhibition) at 1uM” value: 20.6% for the first, -4.38% for the second.

Going from `O=C1C(Cl)=C(N2CCCCCC2)C(=O)N1c1ccc(Cl)cc1` to `O=C(Cn1c(CO)nc2ccccc21)NC1CCCCCC1`, the “hERG current change (%, negative = inhibition) at 1uM” value falls from 15.5% to 5.06%.

Compared with `O=[N+]([O-])c1ccc(N=NN(CCO)CCO)cc1`, `Clc1cccc(CNCCc2ccc3c(c2)OCO3)c1.O=C(O)C(=O)O` is higher in “hERG current change (%, negative = inhibition) at 1uM” value: -32.7% for the first, 1.45% for the second.

Going from `O=C(/C=C/c1ccc(F)cc1)N1CCN(S(=O)(=O)/C=C/c2ccccc2)CC1` to `COc1cccc(C(c2nnnn2CS(=O)(=O)c2ccc(C)cc2)N2CCN(C)CC2)c1OC` (stereo not drawn), the “hERG current change (%, negative = inhibition) at 1uM” value falls from 12.6% to 5.25%.

Compared with `CC(=O)NC(Cc1ccccc1)C(=O)NC1CCN(C(=O)NC2CCCCC2)CC1` (stereo not drawn), `CC(=O)Nc1ccc2c(c1)N(C(=O)CN(C)C)c1ccccc1CC2` is higher in “hERG current change (%, negative = inhibition) at 1uM” value: 5.85% for the first, 9.16% for the second.

Going from `COc1ccc(S(=O)(=O)NCc2ccc(C(=O)N(C)Cc3ccco3)cc2)cc1` to `Cc1c(C(=O)NCCN(C)C)oc2ccc(S(=O)(=O)N3CCC4(CC3)OCCO4)cc12`, the “hERG current change (%, negative = inhibition) at 1uM” value rises from 1.13% to 11.6%.

Compared with `Cc1cc(C)nc(SCCN(C)C)n1.O=C(O)CCC(=O)O`, `Cc1c(C)c2ccc(OCC(=O)NCCCN3CCCC3=O)cc2oc1=O` is higher in “hERG current change (%, negative = inhibition) at 1uM” value: 11.6% for the first, 13.4% for the second.

With `CCCN=C1CC(C)(C)CC(=O)/C1=C(/O)CCCN1C(=O)c2ccccc2C1=O` the “hERG current change (%, negative = inhibition) at 1uM” value was 4.75%.
